Measured values taken from publication PMC11230511.
Results are given in words; binding and its absence hold for the method and conditions named. Binding seen in cells or lysates may run through a third protein. Some entries that bind do so weakly or less than the wild type. For part of these data: Tags and fused reporters may be left off the sequences shown.

Chains of the proteins cited; added tags and fusions are not shown.
UniProt P78527: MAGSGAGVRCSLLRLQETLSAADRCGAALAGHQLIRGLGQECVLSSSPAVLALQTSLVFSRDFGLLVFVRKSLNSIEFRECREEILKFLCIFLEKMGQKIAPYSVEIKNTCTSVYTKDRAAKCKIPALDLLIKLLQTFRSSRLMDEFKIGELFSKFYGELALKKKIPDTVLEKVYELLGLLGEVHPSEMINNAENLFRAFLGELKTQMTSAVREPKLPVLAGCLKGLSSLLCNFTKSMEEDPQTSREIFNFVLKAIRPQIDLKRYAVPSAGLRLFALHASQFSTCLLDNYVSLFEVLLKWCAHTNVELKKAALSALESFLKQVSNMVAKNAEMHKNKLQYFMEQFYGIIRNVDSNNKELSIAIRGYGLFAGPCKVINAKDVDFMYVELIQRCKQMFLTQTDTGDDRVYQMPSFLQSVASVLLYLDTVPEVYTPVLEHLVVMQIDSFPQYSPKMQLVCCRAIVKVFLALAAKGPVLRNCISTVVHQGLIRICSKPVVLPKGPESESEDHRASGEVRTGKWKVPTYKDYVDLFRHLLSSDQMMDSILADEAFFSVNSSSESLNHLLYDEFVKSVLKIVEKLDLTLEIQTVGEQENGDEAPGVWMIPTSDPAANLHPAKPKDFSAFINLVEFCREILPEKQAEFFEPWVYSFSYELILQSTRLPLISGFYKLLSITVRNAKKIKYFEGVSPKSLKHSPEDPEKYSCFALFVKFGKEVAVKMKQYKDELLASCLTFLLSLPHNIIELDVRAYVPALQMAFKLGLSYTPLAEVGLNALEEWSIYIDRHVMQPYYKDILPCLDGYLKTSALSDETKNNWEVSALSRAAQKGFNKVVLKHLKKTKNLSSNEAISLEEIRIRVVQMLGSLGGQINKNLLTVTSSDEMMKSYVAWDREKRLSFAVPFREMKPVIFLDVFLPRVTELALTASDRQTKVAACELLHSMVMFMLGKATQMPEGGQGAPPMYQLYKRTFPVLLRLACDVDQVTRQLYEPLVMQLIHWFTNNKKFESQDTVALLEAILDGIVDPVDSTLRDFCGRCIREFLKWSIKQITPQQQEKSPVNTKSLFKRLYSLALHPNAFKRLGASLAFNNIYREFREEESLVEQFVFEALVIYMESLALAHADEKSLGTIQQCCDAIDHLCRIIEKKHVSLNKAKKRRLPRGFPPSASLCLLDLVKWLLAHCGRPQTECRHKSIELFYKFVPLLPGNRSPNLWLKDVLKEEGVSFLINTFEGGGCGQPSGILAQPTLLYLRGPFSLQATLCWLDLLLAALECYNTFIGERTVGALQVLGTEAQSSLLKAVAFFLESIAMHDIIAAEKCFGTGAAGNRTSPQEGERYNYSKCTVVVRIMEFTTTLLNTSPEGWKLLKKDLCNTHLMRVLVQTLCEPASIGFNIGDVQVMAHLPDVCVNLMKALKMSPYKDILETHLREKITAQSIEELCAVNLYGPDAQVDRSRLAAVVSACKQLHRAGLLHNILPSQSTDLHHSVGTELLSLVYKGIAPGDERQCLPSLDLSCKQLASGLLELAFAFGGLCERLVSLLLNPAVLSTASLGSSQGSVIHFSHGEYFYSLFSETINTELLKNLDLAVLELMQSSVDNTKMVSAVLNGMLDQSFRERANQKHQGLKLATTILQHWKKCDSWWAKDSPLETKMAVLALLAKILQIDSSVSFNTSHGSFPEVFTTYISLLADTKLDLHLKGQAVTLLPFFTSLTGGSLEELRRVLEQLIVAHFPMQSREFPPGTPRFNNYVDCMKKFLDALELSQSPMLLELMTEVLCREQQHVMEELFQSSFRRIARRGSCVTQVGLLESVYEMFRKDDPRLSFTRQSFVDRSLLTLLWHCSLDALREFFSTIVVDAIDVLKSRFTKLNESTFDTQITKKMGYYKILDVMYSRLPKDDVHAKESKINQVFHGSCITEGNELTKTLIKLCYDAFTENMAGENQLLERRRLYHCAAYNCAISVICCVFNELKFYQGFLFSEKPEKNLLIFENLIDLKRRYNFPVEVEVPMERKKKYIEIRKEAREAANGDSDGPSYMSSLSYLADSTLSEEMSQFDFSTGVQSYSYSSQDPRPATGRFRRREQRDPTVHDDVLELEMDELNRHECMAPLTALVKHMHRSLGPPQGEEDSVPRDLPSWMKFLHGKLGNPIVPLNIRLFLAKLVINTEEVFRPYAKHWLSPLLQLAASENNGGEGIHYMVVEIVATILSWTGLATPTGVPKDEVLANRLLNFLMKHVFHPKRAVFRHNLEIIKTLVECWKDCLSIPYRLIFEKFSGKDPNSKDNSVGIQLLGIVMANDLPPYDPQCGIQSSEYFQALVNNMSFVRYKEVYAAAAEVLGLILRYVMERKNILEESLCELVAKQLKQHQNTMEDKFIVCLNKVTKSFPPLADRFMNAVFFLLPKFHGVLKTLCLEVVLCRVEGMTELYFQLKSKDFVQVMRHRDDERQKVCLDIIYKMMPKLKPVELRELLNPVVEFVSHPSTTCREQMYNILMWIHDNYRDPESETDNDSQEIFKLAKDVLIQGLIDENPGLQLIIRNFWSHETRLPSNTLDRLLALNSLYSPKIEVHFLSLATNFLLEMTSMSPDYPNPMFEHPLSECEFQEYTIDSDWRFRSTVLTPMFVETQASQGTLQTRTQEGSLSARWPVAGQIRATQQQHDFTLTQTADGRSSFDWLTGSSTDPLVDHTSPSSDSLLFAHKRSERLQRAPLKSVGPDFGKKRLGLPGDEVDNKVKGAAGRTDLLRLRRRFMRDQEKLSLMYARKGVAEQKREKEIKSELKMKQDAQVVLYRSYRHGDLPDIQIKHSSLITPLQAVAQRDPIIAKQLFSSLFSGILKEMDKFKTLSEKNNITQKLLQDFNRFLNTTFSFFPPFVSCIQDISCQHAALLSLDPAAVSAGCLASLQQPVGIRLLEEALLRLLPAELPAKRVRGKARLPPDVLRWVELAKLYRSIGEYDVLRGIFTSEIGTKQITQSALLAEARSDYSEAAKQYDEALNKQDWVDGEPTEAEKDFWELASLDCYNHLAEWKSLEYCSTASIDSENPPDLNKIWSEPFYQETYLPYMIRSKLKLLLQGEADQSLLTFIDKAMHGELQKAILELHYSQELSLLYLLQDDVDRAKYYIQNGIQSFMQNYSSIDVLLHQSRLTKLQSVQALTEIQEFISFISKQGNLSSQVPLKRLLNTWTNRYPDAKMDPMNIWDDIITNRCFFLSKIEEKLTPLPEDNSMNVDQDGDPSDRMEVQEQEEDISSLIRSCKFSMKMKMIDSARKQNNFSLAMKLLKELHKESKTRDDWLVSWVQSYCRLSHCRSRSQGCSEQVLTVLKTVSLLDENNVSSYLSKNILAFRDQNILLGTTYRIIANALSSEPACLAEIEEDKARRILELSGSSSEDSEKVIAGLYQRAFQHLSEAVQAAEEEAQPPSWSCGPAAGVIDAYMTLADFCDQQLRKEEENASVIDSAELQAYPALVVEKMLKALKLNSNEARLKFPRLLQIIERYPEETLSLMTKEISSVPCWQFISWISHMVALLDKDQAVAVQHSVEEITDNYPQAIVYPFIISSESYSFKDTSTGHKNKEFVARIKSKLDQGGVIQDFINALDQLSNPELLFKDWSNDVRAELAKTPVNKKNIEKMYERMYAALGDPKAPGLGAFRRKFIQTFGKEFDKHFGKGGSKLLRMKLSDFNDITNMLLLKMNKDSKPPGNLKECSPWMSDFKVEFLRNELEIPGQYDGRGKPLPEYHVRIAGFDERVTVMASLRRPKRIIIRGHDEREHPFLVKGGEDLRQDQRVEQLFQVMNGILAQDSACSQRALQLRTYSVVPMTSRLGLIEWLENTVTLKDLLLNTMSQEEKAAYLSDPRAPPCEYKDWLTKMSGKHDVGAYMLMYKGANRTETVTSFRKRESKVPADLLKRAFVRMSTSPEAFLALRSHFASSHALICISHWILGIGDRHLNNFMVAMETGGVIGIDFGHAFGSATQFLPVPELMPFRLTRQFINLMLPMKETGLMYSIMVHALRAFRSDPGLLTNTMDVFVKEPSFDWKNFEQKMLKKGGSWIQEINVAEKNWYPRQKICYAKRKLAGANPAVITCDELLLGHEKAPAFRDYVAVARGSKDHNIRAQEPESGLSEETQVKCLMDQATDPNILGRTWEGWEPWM

Columns and labels:
[1] = biological target: T1, GST-tagged FLCN (folliculin) (human) (UniProt Q8NFG4); experiment: pull-down; GST-FLCN overexpressed in HEK293 as bait; lysate on glutathione-Sepharose 4B beads, 4°C, 3 h; washed 5 times in BHD lysis buffer with 300 mM NaCl for DNA-PKcs (250 mM for all other proteins); eluted with 10 mM glutathione; endogenous proteins detected by western blot
T1 sequence: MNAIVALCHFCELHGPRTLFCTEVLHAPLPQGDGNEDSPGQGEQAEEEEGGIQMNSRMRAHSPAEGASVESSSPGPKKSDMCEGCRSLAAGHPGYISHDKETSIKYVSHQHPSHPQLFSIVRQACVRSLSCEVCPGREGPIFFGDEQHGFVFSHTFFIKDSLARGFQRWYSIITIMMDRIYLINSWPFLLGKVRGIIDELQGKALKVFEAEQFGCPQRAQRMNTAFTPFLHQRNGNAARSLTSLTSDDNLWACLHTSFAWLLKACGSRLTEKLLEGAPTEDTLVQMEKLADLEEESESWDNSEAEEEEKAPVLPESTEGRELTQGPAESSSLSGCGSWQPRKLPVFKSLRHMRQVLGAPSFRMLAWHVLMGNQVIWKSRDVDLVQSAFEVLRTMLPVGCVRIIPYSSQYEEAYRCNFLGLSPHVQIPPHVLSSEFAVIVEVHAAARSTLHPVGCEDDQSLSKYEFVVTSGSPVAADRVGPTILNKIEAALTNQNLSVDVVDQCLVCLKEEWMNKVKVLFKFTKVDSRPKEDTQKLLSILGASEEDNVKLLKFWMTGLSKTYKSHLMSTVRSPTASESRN

HA-FLCN Y463X (human) = biological target: T2, HA-FLCN Y463X (human) (UniProt Q8NFG4); experiment: co-IP; HA-FLCN constructs overexpressed in HEK293; pre-cleared lysates, anti-HA antibodies 2 h at 4°C, protein G-Sepharose; endogenous DNA-PKcs detected by western blot
T2 sequence: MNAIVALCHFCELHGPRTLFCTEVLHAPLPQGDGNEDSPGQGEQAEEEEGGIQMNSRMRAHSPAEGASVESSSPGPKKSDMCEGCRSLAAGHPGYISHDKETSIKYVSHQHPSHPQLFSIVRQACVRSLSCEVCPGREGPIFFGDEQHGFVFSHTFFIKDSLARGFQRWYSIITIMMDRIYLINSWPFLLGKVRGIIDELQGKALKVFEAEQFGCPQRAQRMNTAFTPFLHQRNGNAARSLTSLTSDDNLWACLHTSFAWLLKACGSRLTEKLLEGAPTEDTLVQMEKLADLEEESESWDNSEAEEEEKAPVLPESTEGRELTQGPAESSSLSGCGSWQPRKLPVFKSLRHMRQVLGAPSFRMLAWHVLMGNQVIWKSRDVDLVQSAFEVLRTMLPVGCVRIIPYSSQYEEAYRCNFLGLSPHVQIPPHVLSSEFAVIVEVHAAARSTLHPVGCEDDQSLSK

[2] = biological target: T3, HA-FLCN wild type (human) (UniProt Q8NFG4); experiment: as above
T3 sequence: T1 sequence

[3] = biological target: T1, GST-tagged FLCN (folliculin) (human); experiment: condition: only after irradiation (IR) of the cells at 5 or 10 Gy; pull-down; GST-FLCN overexpressed in HEK293 cells that were subjected to IR (5 or 10 Gy) and left 1 or 4 h before lysis; GST-FLCN purified, endogenous DNA-PKcs detected by western blot
[4] = biological target: T4, endogenous FLCN (folliculin) (human (endogenous; only human cell lines, HEK293 and HK2, are used in the paper)) (UniProt Q8NFG4); experiment: co-IP; endogenous FLCN immunoprecipitated with an antibody raised against N-terminal FLCN; endogenous DNA-PKcs detected by western blot
T4 sequence: T1 sequence

For “ATR (from UniProt Q13535 1-2644) (enzyme)”, the binding [1] was “no binding”.
“DNA-dependent protein kinase catalytic subunit (DNA-PKcs) (from UniProt P78527 1-4128) (enzyme)” was tested, and the binding [1] was “binds”, the binding (HA-FLCN Y463X (human)) was “binds” and the binding [2] was “binds”. The binding [3] was “no binding” and the binding [4] was “binds”.
